This data set concerns Infected and uninfected HSB-2 cells. The data set can be described thus: Caspase-Glo 3/7 apoptosis assay. Format: cell-based. The settings on record: 3 days incubation, 0.5 μM to 15 μM.

The values that follow come from US20110166106A1, “ARTEMISININ AND DERIVATIVES THEREOF AS ANTIVIRALS” (priority 2008, published 2011).

Consider `C[C@H]1[C@H](OC(=O)CCC(=O)O)O[C@@H]2O[C@@]3(C)CC[C@H]4[C@H](C)CC[C@@H]1[C@@]24OO3` [ART, artesunate], for which the apoptosis signals induced entry was “very low”.
